# Where “and” joins values, the source holds several entries; their conditions need not be identical. Equal values may be shown once. Screen size: about 360,000 compounds; about 16,000 (4.4%) were called active. The inconclusive results got no clear call from the source; some entries with a clear call stand among them for comparison. Calls follow the shape of the dose curve; as a rule, active = well fitted inhibition curve with a large enough effect; inconclusive = small, poorly fitted or top-dose-only effect; inactive = no such curve, though single readings can be large or run the other way. Potencies of inconclusive entries are doubtful fits and often do not repeat.
# Target: Bromodomain adjacent to zinc finger domain protein 2B (Homo sapiens) (UniProt Q9UIF8)
# Experiment: qHTS Assay for Inhibitors of BAZ2B; also: nearly all actives have a fitted effect of over 60% in size
# Details: AlphaScreen BAZ2B-H3K14Ac peptide displacement; series mostly up to 114 µM
# Procedure, shortened: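 Complex of BAZ2B and biotin-H3K14Ac (50 nM apiece) forms over 30 min at RT, then faces library compounds up to 110 uM for another 30 min; AlphaScreen beads added, 20 min dark incubation, luminescence read.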
# Potency is read from the fitted curve at half-maximal effect; tags tell the direction and shape of the fitted curve.
# Chain of UniProt Q9UIF8 (Q9UIF8 whole entry, looked up, the tested form may be a part): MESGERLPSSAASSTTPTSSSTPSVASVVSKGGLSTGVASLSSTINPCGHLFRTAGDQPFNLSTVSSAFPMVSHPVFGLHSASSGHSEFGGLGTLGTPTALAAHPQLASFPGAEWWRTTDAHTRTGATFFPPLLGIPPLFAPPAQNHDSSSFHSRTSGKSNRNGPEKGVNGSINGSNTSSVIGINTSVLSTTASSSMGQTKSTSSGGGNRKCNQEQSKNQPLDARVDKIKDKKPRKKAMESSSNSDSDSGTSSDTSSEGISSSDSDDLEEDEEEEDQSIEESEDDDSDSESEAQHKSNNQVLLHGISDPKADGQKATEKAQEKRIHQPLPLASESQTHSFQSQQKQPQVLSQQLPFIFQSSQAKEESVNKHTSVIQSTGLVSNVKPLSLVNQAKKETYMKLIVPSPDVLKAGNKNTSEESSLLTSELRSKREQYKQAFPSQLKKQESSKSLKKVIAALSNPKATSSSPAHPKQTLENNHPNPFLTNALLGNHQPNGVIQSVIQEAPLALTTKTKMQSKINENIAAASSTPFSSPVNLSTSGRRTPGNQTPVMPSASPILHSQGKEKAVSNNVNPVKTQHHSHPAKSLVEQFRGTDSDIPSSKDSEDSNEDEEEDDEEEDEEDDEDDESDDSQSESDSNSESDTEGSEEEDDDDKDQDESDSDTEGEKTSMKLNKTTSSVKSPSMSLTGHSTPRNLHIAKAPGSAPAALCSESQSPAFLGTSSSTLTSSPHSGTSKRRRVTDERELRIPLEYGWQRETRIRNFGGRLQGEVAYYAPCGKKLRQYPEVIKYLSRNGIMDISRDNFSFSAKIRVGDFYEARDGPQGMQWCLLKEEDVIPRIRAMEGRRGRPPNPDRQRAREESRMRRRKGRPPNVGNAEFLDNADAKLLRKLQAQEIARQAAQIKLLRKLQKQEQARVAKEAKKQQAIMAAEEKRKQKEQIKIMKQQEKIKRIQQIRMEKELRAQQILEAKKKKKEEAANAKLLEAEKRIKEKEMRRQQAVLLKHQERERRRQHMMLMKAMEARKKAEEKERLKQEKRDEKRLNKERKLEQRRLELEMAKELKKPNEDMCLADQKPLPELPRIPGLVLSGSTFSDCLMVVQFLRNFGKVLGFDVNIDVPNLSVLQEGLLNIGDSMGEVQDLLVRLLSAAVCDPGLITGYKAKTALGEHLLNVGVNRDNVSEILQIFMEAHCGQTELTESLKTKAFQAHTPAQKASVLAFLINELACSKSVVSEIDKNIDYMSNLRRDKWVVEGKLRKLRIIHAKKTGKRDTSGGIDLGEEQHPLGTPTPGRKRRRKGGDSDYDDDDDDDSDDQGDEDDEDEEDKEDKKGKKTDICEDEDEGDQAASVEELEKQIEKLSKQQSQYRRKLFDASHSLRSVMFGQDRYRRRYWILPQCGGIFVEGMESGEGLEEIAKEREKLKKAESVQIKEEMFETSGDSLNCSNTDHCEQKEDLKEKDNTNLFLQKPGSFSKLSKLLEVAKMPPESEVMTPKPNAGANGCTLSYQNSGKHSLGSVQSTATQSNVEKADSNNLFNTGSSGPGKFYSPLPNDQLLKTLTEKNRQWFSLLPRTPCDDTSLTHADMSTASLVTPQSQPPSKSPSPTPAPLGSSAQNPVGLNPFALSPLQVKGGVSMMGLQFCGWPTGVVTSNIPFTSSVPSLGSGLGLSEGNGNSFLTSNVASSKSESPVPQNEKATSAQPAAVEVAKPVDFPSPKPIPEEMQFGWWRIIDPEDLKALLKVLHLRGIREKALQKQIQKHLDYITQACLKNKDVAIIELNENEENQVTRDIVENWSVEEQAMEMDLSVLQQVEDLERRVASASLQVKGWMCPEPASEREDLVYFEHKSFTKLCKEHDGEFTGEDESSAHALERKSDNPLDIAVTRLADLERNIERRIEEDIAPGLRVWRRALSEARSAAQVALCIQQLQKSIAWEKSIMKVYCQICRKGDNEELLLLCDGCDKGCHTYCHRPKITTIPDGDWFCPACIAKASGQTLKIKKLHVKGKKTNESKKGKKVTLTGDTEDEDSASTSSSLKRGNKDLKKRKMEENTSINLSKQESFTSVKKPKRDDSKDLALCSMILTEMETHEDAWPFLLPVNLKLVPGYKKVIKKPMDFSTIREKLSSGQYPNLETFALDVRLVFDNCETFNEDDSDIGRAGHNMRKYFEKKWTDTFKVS
row,Structure (SMILES),Potency
1,CCOc1ccc(N2C(=O)/C(=C/c3ccc(C)o3)C(=O)NC2=S)cc1,"inconclusive: 89.1 µM [inhibitor, single point]"
2,COc1ccc(NC(=O)c2sc3nc4c(cc3c2N)N2CCC4CC2)cc1OC,inactive
3,CCc1nnc(NC(=O)CCc2nc(C3=CCN(C)CC3)no2)s1,"inconclusive: 79.4 µM [inhibitor, single point]"
4,COCc1cc(C)c(C#N)c(=S)[nH]1,"inconclusive: 100 µM [inhibitor, single point]"
5,O=P(C(c1c[nH]c2ccccc12)N1CCOCC1)(N1CCOCC1)N1CCOCC1 (centres undefined),"inconclusive: 89.1 µM [inhibitor, single point]"
6,CCCCn1nc(C)c(C(=O)O)c1Cl,inactive
7,CCOC(=O)CC1=C(C(=O)OCC)C2(C(=O)N1CC(=O)OC)C(C#N)=C(N)Oc1ccccc12 (centres undefined),"inconclusive: 89.1 µM [inhibitor, single point]"
8,CCOc1ccc(CN(CCCl)CCCl)cc1C(=O)OC,"inconclusive: 79.4 µM [inhibitor, single point]"
9,C=CCn1c(O)c(C=NCCN2CCNCC2)c(=O)[nH]c1=O,"inconclusive: 14.1 µM [inhibitor, single point]"
10,COc1cc(C2Nc3c(C)cc(C)cc3-c3cc(C)nn32)cc(OC)c1O (centres undefined),"inconclusive: 56.2 µM [inhibitor, single point]"
11,Cc1[nH]n(-c2ccccc2)c(=O)c1C(c1cccc([N+](=O)[O-])c1O)c1c(C)[nH]n(-c2ccccc2)c1=O,active: 31.6 µM
12,O=C(O)c1ccc2c(c1)C1C(Cl)C(Sc3ccccc3[N+](=O)[O-])CC1C(c1cccc([N+](=O)[O-])c1)N2 (centres undefined),active: 17.8 µM
13,COC(=O)C1=C(c2ccc(Cl)c(C(F)(F)F)c2)C[C@@H]2CC[C@H]1N2C(=O)NCc1ccco1,"inconclusive: 89.1 µM [inhibitor, single point]"
14,Cc1cc(C(=O)C[N+]23CCN(CC2)CC3)c(C)n1-c1ccc(Br)cc1,active: 79.4 µM
15,COc1ccccc1CN1CCN(C(=O)COc2cccc(C)c2)CC1,active: 50.1 µM
16,COc1ccc(NC(=O)CN2C(=O)CN=C(c3ccccc3)c3ccccc32)c(OC)c1,"inconclusive: 89.1 µM [inhibitor, single point]"
17,CCCN(CC#CCOc1ccc(OC)cc1)CCC,active: 56.2 µM
18,Cc1cc(C)cc(NC(=S)NC2CC3CCC(C2)N3Cc2ccco2)c1 (centres undefined),"inconclusive: 89.1 µM [inhibitor, single point]"
19,COc1ccccc1N1C(=O)NC(=O)/C(=C/c2ccc([N+](=O)[O-])s2)C1=O,active: 35.5 µM
20,CC[C@@H](CO)NC(=O)[C@@H]1C=C2c3cccc4c3c(cn4C)C[C@H]2N(C)C1,"inconclusive: 56.2 µM [inhibitor, partial curve] and inconclusive: 50.1 µM [inhibitor, partial curve]"
21,O=C(Nc1ccccc1[N+](=O)[O-])c1ccc(S(=O)(=O)N2CCCC2)cc1,"inconclusive: 15.8 µM [inhibitor, full curve]"
22,Cc1ccc2c(c1)CC1(CN2C)C(=O)NC(=O)N(c2cccc(C)c2C)C1=O (centres undefined),inactive
23,COc1cc(Cc2ccc(N)c(OC)c2)ccc1N,"inconclusive: 50.1 µM [inhibitor, partial curve]"
24,Cc1cc(C(=O)Nc2ccc3c(c2)OCCO3)nn1C(C)(C)C,"inconclusive: 50.1 µM [inhibitor, partial curve]"
25,Cc1ccc(NC(=O)CN(C)CC(=O)Nc2cccc(F)c2)cc1[N+](=O)[O-],"inconclusive: 44.7 µM [inhibitor, partial curve]"

row,Structure (SMILES),Potency
1,CC1CCc2cc(F)cc3c(=O)c(C(=O)O)cn1c23 (centres undefined),active: 56.2 µM
2,c1ccc(CCNC2CCCCCC2)cc1,active: 70.8 µM
3,COc1ccc(CN2CCN(Cc3ccccc3F)CC2)cc1,active: 17.8 µM
4,O=[N+]([O-])c1cc([As](=O)(O)c2ccc(O)c([N+](=O)[O-])c2)ccc1O,"inconclusive: 89.1 µM [inhibitor, single point]"
5,Cc1ccc(/C=C2\C(=O)NC(=S)N(c3ccccc3F)C2=O)s1,active: 50.1 µM
6,Cc1nc2ccc(P(=O)(O)O)cc2s1,"inconclusive: 89.1 µM [inhibitor, single point]"
7,CC1=NN(c2ccccc2)C(=O)/C1=C/c1c(O)[nH]c(=S)[nH]c1=O,"inconclusive: 89.1 µM [inhibitor, single point]"
8,Cc1ccc2[nH]c(C)c(CCNCc3ccco3)c2c1,"inconclusive: 50.1 µM [inhibitor, partial curve]"
9,O=C(c1c[nH]c(C(=O)C(Cl)(Cl)Cl)c1)c1ccccc1Cl,"inconclusive: 89.1 µM [inhibitor, single point]"
10,O=c1c2ccccc2nc(/C=C/c2ccc([N+](=O)[O-])o2)n1-c1ccc(O)cc1,"inconclusive: 89.1 µM [inhibitor, single point]"
11,CCOc1ccc(CN(CCc2ccc3c(c2)OCO3)Cc2ccc(CC)cc2)cc1,active: 70.8 µM
12,COc1ccccc1N1C(=O)NC(=O)/C(=C/c2ccc3c(c2)Cc2ccccc2-3)C1=O,active: 50.1 µM
13,CN1/C(=C\C=C\C2=[N+](C)c3ccc4ccccc4c3C2(C)C)C(C)(C)c2ccccc21,active: 4.47 µM
14,O=C(O)CCC(=O)NCCC1=c2ccccc2=N/C1=C\c1c(O)n(Cc2ccc(F)cc2)c(=S)[nH]c1=O,active: 31.6 µM
15,CC(C)[N+]12CCC(CC1)C(C(O)(c1ccccc1)c1ccccc1)C2 (centres undefined),"inconclusive: 89.1 µM [inhibitor, single point]"
16,[N-]=[N+]=NCc1cn2cccnc2n1,inactive
17,CCCc1nc(SC)ncc1C(=O)Nc1ccc(Cl)cc1C(=O)c1ccccc1,inactive
18,O=[N+]([O-])c1ccc(N2CCNCC2)cc1N1CCCCCC1,"inconclusive: 50.1 µM [inhibitor, partial curve]"
19,CCN1C(=O)C(=C/C=C/c2ccco2)C(=O)N(CC)C1=S,active: 44.7 µM
20,COc1cc(-c2ccc(N)c(OC)c2)ccc1N,active: 50.1 µM
21,O=C(COc1ccc(Br)cc1)N1CCN(C2CCCC2)CC1,inactive
22,O=C(c1cn(Cc2ccccc2)c2ccccc12)C1CC1,inactive
23,O=C(COc1ccc(Cl)cc1)N1CCN(C2CCCC2)CC1,active: 50.1 µM
24,COc1ccccc1C(=O)C1CCCN(Cc2cnc(C)s2)C1 (centres undefined),"inconclusive: 89.1 µM [inhibitor, single point]"
25,COc1cc2c(cc1OC)C(C)N(C(=O)c1nccnc1C(=O)O)CC2 (centres undefined),"inconclusive: 79.4 µM [inhibitor, single point]"

row,Structure (SMILES),Potency
1,c1ccc(Nc2ccc(Nc3ccccc3)cc2)cc1,active: 28.2 µM
2,Nc1ccc([N+](=O)[O-])cc1,"inconclusive: 89.1 µM [inhibitor, single point]"
3,O=C(N/N=C/c1c(O)n(-c2ccccc2)c(=S)[nH]c1=O)c1ccccc1,active: 44.7 µM
4,CCCC(C)c1nnc(NC(=O)CCS(=O)(=O)c2ccccc2)s1 (centres undefined),"inconclusive: 50.1 µM [inhibitor, partial curve]"
5,CCOc1ccc(CN(CCc2ccc3c(c2)OCO3)Cc2cccc(Br)c2)cc1,"inconclusive: 89.1 µM [inhibitor, single point]"
6,CCC1CO/C(=C(\C(Cl)=C(Cl)Cl)[N+](=O)[O-])N1Cc1ccc(Cl)nc1 (centres undefined),active: 79.4 µM
7,COc1ccc(N2CCN(C(=O)c3cc(=O)[nH]c4ccccc34)CC2)cc1,"inconclusive: 70.8 µM [inhibitor, single point]"
8,CN(C)c1ccc(-[n+]2c(-c3ccccc3)cc(-c3ccccc3)cc2-c2ccccc2)cc1,"inconclusive: 11.2 µM [inhibitor, partial curve]"
9,NS(=O)(=O)c1ccc(N=Nc2c(O)[nH]c(=S)[nH]c2=O)cc1,inactive
10,CC(=O)c1ccc2c(c1)C1C(Cl)C(Sc3ccccc3[N+](=O)[O-])CC1C(C(=O)O)N2 (centres undefined),active: 10 µM
11,CCOc1cccc(OCC)c2c(C)[n+](CC3CCCO3)c(C)c1-2 (centres undefined),active: 25.1 µM
12,c1ccc2c(c1)OCC(C1=NCCN1)O2 (centres undefined),"inconclusive: 89.1 µM [inhibitor, single point]"
13,COC(=O)C(O)(c1c(C)[nH]n(-c2ccccc2)c1=O)C(F)(F)F (centres undefined),"inconclusive: 89.1 µM [inhibitor, single point]"
14,Oc1c(Br)cc(Br)cc1CN1CCN(Cc2ccccc2)CC1,active: 79.4 µM
15,CN1CCC2(CC1)C(C#N)=C(N)NC(S)=C2C#N,"inconclusive: 50.1 µM [inhibitor, partial curve]"
16,CCN1CCN(Cc2cccc(Oc3ccccc3)c2)CC1,active: 31.6 µM
17,CCOc1nc(NC(C)C)nc(N2CC3CC(C2)c2cccc(=O)n2C3)n1 (centres undefined),inactive
18,Fc1ccc(N2CCN(Cc3ccc4c(c3)OCO4)CC2)cc1,active: 56.2 µM
19,OCC(Br)CBr (centres undefined),"inconclusive: 100 µM [inhibitor, single point]"
20,CCCCCCCCCOc1ccc2[nH]cc(CCN)c2c1,active: 35.5 µM
21,Clc1ccc(COC(Cn2ccnc2)c2ccc(Cl)cc2Cl)cc1 (centres undefined),active: 25.1 µM
22,C=CCn1c(O)c(C(C)=Nc2ccc(C(=O)O)cc2)c(=O)[nH]c1=O,"inconclusive: 89.1 µM [inhibitor, single point]"
23,C(=NC12CN3CN(CN(C3)C1)C2)c1cccs1,inactive
24,O=C1c2cccc3cc([N+](=O)[O-])cc(c23)C(=O)N1c1ccccc1O,"inconclusive: 89.1 µM [inhibitor, single point]"

# Source: PubChem BioAssay AID504333 (National Center for Advancing Translational Sciences (NCATS), 2011)
